Out of some 360,000 compounds screened, about 25,000 (6.9%) were called active. This list was built around the results that the source calls inconclusive (neither active nor inactive); the mix of calls is not that of the screen. Calls follow the shape of the dose curve; as a rule, active = well fitted inhibition curve with a large enough effect; inconclusive = small, poorly fitted or top-dose-only effect; inactive = flat fitted curve, though single readings scatter. A potency beside an inconclusive call is a rough fit, not a confirmed value.
These molecules were tested against Luciferin 4-monooxygenase (Photinus pyralis) (UniProt P08659) (assay: qHTS profiling assay for firefly luciferase inhibitor/activator using purifed enzyme and Km concentrations of substrates (counterscreen for miR-21 project)). Details: purified FLuc, luminescence inhibition; series mostly up to 57.5 µM.
How it was run: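 Purified P. pyralis luciferase, 10 nM final, with Km-level 10 uM D-luciferin and 10 uM ATP in 50 mM Tris acetate pH 7.5, 10 mM Mg acetate, 0.01% Tween-20, 0.05% BSA; 6-point qHTS titration about 60 µM downward; luminescence read.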
Also: nearly all actives have a fitted effect of over 55% in size.
Potency is read from the fitted curve at half-maximal effect; tags tell the direction and shape of the fitted curve.

UniProt P08659, sequence (P08659 whole entry, looked up): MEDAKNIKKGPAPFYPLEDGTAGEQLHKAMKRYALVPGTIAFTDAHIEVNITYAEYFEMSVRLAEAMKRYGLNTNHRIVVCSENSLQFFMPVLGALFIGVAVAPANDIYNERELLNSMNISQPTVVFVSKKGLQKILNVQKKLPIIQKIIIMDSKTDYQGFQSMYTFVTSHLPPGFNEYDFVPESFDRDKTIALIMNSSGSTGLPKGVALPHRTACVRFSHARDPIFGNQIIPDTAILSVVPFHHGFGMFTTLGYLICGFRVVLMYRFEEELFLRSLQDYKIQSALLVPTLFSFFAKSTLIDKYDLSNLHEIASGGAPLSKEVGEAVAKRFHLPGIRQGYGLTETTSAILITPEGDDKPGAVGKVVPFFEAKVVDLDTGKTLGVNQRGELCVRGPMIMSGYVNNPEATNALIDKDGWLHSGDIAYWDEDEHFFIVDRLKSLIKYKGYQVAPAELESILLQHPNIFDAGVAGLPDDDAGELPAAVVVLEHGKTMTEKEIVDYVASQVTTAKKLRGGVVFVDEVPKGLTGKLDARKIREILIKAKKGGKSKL

How did the Potency turn out when O=C(c1ccco1)N(CCC(c1ccccc1)c1ccco1)Cc1ccco1 (stereo unspecified) was run?
Its Potency is inconclusive: 37.9 µM [inhibitor, partial curve, poor fit].

For O=C(Nc1sc2c(c1C(=O)O)CCC2)c1ccccc1, which Potency is on record?
Its Potency is active: 15.1 µM.

How did the Potency turn out when CCOc1ccc(/C(O)=C2/C(=O)C(=O)N(c3ncccn3)C2c2ccccc2)cc1 (stereo unspecified) was run?
Its Potency is inconclusive: 23.9 µM [inhibitor, partial curve, poor fit].

With COc1cccc(NC(=O)c2ccccc2)c1 as the molecule, how does the Potency read?
Its Potency is active: 10.7 µM.

COc1ccc(F)cc1S(=O)(=O)N1CCC2(CC1)OCCN2S(=O)(=O)c1cccs1 was tested. Which Potency did it give?
Its Potency is “inactive”.

Which Potency does the source give for Cc1cc2ncn(C(=O)N3CCCCCC3)c2cc1C here?
The Potency was inconclusive: 30.1 µM [inhibitor, partial curve, poor fit].

How did the Potency turn out when O=C(CSc1ccc(-c2ccccc2)nn1)N1CCCCC1 was run?
Its Potency is inconclusive: 21.3 µM [inhibitor, single point].

With O=C(CCS(=O)(=O)c1ccccc1)NC1CCCCC1 as the molecule, how does the Potency read?
Its Potency is active: 16.9 µM.

For O=C(NCCc1ccccc1)c1cc2ncc(Br)cn2n1, which Potency is on record?
The Potency was inconclusive: 10.7 µM [inhibitor, partial curve, poor fit].

With O=[N+]([O-])c1ccccc1N/N=C1\CCc2ccccc21 as the molecule, how does the Potency read?
The Potency was inconclusive: 1.69 µM [inhibitor, full curve].

For CCCc1nc2sc3c(c2c(=O)n1NC(=O)CCC(=O)O)CCCC3, which Potency is on record?
Its Potency is inconclusive: 37.9 µM [inhibitor, partial curve, poor fit].

CC(C)(C)c1ccc(-n2ncc3c2CCCC3NC(=O)C2=NNC(=O)CC2)cc1 (stereo unspecified) was tested. Which Potency did it give?
Its Potency is inconclusive: 23.9 µM [inhibitor, partial curve].

With CC(=O)c1ccc(N/C=C\C(=O)c2ccc(C)cc2)cc1 as the molecule, how does the Potency read?
Its Potency is active: 1.9 µM.

How did the Potency turn out when CN1CCCNc2nc3ccccc3nc21 was run?
Its Potency is inconclusive: 23.9 µM [inhibitor, single point].

With CN1C(=O)N(CC(=O)N2CCN(c3ccccc3F)CC2)C(=O)C12CCCCC2 as the molecule, how does the Potency read?
The Potency was “inactive”.

COc1ccc(-n2ncc3c(N4CCCc5ccccc54)ncnc32)cc1 was tested. Which Potency did it give?
Its Potency is active: 1.35 µM.

With Cc1cc2nc(-c3ccc(SCC(=O)NC(C)C)nc3)[nH]c2cc1C as the molecule, how does the Potency read?
The Potency was active: 2.13 µM.

Which Potency does the source give for O=C1/C(=N/n2cnnc2)c2ccccc2N1Cc1ccccc1 here?
Its Potency is inconclusive: 21.3 µM [inhibitor, partial curve, poor fit].

Which Potency does the source give for CCc1cc2c(=O)nc3n(c2s1)Cc1ccccc1/C3=C(/O)c1ccc(F)cc1 here?
The Potency was inconclusive: 5.36 µM [inhibitor, partial curve].

How did the Potency turn out when COCCn1c(SCC(=O)Nc2ccc(Cl)c(S(=O)(=O)N(C)C)c2)nc2ccccc21 was run?
The Potency was “inactive”.

CC(C)Sc1nc2ccc(N3C(=O)C4CCCCC4C3=O)cc2s1 (stereo unspecified) was tested. Which Potency did it give?
Its Potency is inconclusive: 2.39 µM [inhibitor, full curve].

For COc1ccc(CN2CCSCC2)cc1C, which Potency is on record?
Its Potency is “inactive”.

For N/C(=N/OC(=O)c1cccc([N+](=O)[O-])c1)c1cccc([N+](=O)[O-])c1, which Potency is on record?
Its Potency is inconclusive: 6.01 µM [inhibitor, partial curve, poor fit].

CCC(=O)NCCc1nc2cc(NC(=O)COc3ccccc3)ccc2n1C was tested. Which Potency did it give?
Its Potency is inconclusive: 23.9 µM [inhibitor, partial curve, poor fit].

How did the Potency turn out when C(=N\Nc1nc(Nc2ccccc2)nc(Nc2ccccc2)n1)/c1cccnc1 was run?
Its Potency is inconclusive: 19 µM [inhibitor, partial curve].

CCCCOc1ccc(C(=O)Nc2ccc(OCC(=O)N3CCOCC3)cc2)cc1 was tested. Which Potency did it give?
Its Potency is active: 1.07 µM.

Which Potency does the source give for Cc1cc(C)cc(N2C(=O)CC(Sc3nnnn3-c3ccccc3)C2=O)c1 (stereo unspecified) here?
Its Potency is inconclusive: 23.9 µM [inhibitor, partial curve].

For CN(C)S(=O)(=O)N1CCCC(C(=O)c2ccc(-c3ccccc3)cc2)C1 (stereo unspecified), which Potency is on record?
Its Potency is inconclusive: 16.9 µM [inhibitor, partial curve].

How did the Potency turn out when Cc1ccc(OCC(=O)Nc2cccc(C(=O)OCc3cc(=O)n4cc(C)sc4n3)c2)cc1 was run?
The Potency was inconclusive: 8.49 µM [inhibitor, partial curve, poor fit].

For CCOC(=O)c1cnn(-c2nc3sc4c(c3c(=O)[nH]2)CCCC4)c1N, which Potency is on record?
The Potency was inconclusive: 21.3 µM [inhibitor, partial curve, poor fit].

Which Potency does the source give for COc1cccc(OCc2cc(C(=O)NC(C)c3cnn(C)c3C)no2)c1 (stereo unspecified) here?
The Potency was inconclusive: 16.9 µM [inhibitor, partial curve].

Which Potency does the source give for CCC1(C)N=C(c2ccc3c(c2)OCO3)CC(c2ccccc2O)N1 (stereo unspecified) here?
Its Potency is active: 7.57 µM.

With Cc1cccc(C)c1OCc1cc(C(=O)N2CCN(C3CCCC3)CC2)no1 as the molecule, how does the Potency read?
The Potency was inconclusive: 23.9 µM [inhibitor, single point].

How did the Potency turn out when COc1ccc(/C=N/NC(=O)C2C3CCCCC32C)cc1OC (stereo unspecified) was run?
Its Potency is inconclusive: 33.8 µM [inhibitor, partial curve, poor fit].

Which Potency does the source give for O=S(=O)(c1cccs1)N1CN(Cc2ccco2)c2nc3ccccc3nc21 here?
Its Potency is inconclusive: 26.9 µM [inhibitor, partial curve, poor fit].

Nc1nc(Nc2cccc(Cl)c2)nc(NCCO)c1[N+](=O)[O-] was tested. Which Potency did it give?
Its Potency is inconclusive: 37.9 µM [inhibitor, partial curve, poor fit].

With Cc1cccc2c1cnn2C(=O)CCC(=O)N1CCC(C)CC1 as the molecule, how does the Potency read?
Its Potency is inconclusive: 37.9 µM [inhibitor, partial curve, poor fit].

How did the Potency turn out when O=C(NC1CC(=O)c2sccc21)c1ccc(Cl)cc1Cl (stereo unspecified) was run?
Its Potency is active: 16.9 µM.

With COC(=O)c1cccc(Nc2c(-c3cc(Br)ccc3O)nc3nc[nH]n23)c1 as the molecule, how does the Potency read?
Its Potency is inconclusive: 37.9 µM [inhibitor, partial curve, poor fit].

O=C(Nc1nccs1)c1ccc(COc2ccccc2Br)o1 was tested. Which Potency did it give?
Its Potency is active: 19 µM.

With O=C(CSc1n[nH]c(-c2ccccc2)n1)c1ccc(O)c(O)c1 as the molecule, how does the Potency read?
The Potency was inconclusive: 26.9 µM [inhibitor, partial curve, poor fit].

With CCc1nnc(SCc2nc(-c3ccccc3F)oc2C)c2cc3sccc3n12 as the molecule, how does the Potency read?
Its Potency is “inactive”.

How did the Potency turn out when CCOc1ccccc1NC(=O)c1c(NCc2ccc(OC)c(OC)c2OC)sc2c1CCC(C)C2 (stereo unspecified) was run?
The Potency was “inactive”.

For O=c1cccc2n1Cc1cc3ccccc3nc1-2, which Potency is on record?
Its Potency is active: 19 µM.

With O=C(N/N=C/c1cccc(O)c1)c1ccc(NC(=O)c2cccc([N+](=O)[O-])c2)cc1 as the molecule, how does the Potency read?
Its Potency is inconclusive: 21.3 µM [inhibitor, single point].

With CCOc1ccccc1NC(=O)c1ccc2c(c1)CCCN2S(C)(=O)=O as the molecule, how does the Potency read?
The Potency was “inactive”.

For CC1(C)CC(=O)c2c(O)cc(OCc3ccc([N+](=O)[O-])cc3)cc2O1, which Potency is on record?
The Potency was active: 4.78 µM.

Which Potency does the source give for COc1cc(/C=C/C(=O)O)cc(S(=O)(=O)Nc2ccc3nc(SC)sc3c2)c1OC here?
The Potency was inconclusive: 30.1 µM [inhibitor, partial curve, poor fit].

With Fc1ccc(Nc2nc(-c3cccnc3)cs2)cc1 as the molecule, how does the Potency read?
The Potency was active: 3.01 µM.

Which Potency does the source give for CC(C)Oc1ccc(C(CC(=O)O)c2ccc(F)cc2)cc1 (stereo unspecified) here?
Its Potency is inconclusive: 21.3 µM [inhibitor, partial curve, poor fit].

Which Potency does the source give for C[C@H](NC(=O)OC(C)(C)C)c1nnc(SCC(=O)Nc2ccc(Br)cc2)o1 here?
The Potency was inconclusive: 13.5 µM [inhibitor, partial curve].

How did the Potency turn out when CCc1ccc(OC)c(S(=O)(=O)NCc2cccs2)c1 was run?
The Potency was “inactive”.

How did the Potency turn out when Cn1c(COc2ccc3ccccc3c2)nnc1SCC(=O)OC1CCCCC1 was run?
Its Potency is inconclusive: 37.9 µM [inhibitor, partial curve, poor fit].

COc1ccc(S(=O)(=O)c2c(O)c3ccc(C(=O)Nc4ccccc4F)cc3[nH]c2=O)cc1 was tested. Which Potency did it give?
The Potency was “inactive”.

For CC(C)(C)OC(=O)NCCCCCc1nnc(SCc2ccccc2)o1, which Potency is on record?
The Potency was inconclusive: 42.6 µM [inhibitor, partial curve, poor fit].

CCC(C(=O)N1CCN(c2ccccc2F)CC1)n1nc(C)c2sc3ccccc3c2c1=O (stereo unspecified) was tested. Which Potency did it give?
Its Potency is active: 15.1 µM.

Which Potency does the source give for COc1ccc(NC(=O)CCn2nc(-c3ccccc3OC)c3c(C)cc(C)nc32)cc1 here?
Its Potency is “inactive”.

With COc1ccccc1N1CCN(/N=C\c2ccccc2)CC1 as the molecule, how does the Potency read?
The Potency was active: 15.1 µM.

For CC(=C/c1ccco1)/C=N/N1CCN(c2ccccc2)CC1, which Potency is on record?
Its Potency is active: 2.69 µM.

Cc1ccc(Cl)cc1N1CCN(C(=O)c2cccn3c(=O)c4cc(Cl)ccc4nc23)CC1 was tested. Which Potency did it give?
The Potency was “inactive”.

With CCCCc1nc2cc(C(=O)NCc3cc(C)n(C)n3)ccc2o1 as the molecule, how does the Potency read?
Its Potency is inconclusive: 37.9 µM [inhibitor, single point].

Cn1c(C=O)c(-c2ccc3cc[nH]c3c2)c2ccccc21 was tested. Which Potency did it give?
Its Potency is inconclusive: 30.1 µM [inhibitor, partial curve, poor fit].

Which Potency does the source give for CCOc1ccccc1C(=O)Nc1cc(C)ccc1NC(=O)c1ccco1 here?
Its Potency is “inactive”.

Which Potency does the source give for FC(F)(F)c1cccc(CNC2c3ccccc3-c3ccccc32)c1 here?
The Potency was “inactive”.

CCOc1ccc(-c2cc(C(=O)N3CCN(C)CC3)c3ccccc3n2)cc1 was tested. Which Potency did it give?
The Potency was active: 0.601 µM.

Cc1ccc(OCCCSc2n[nH]c(N)n2)cc1 was tested. Which Potency did it give?
Its Potency is inconclusive: 26.9 µM [inhibitor, single point].

With C=C(C)C(=O)Nc1ccc2c(c1)OCCOCCOCCO2 as the molecule, how does the Potency read?
Its Potency is “inactive”.

Which Potency does the source give for COc1cccc(C2C=C(c3ccc(OC)cc3OC)Nc3nnnn32)c1 (stereo unspecified) here?
Its Potency is inconclusive: 23.9 µM [inhibitor, partial curve, poor fit].

With O=C(CSc1nccc(=O)[nH]1)Nc1ccc(N2CCOCC2)cc1 as the molecule, how does the Potency read?
Its Potency is inconclusive: 26.9 µM [inhibitor, partial curve, poor fit].

Cc1ccc2oc(-c3cc(NC(=O)c4ccc5c(c4)OCCO5)cc(C)c3O)nc2c1 was tested. Which Potency did it give?
Its Potency is inconclusive: 12 µM [inhibitor, partial curve, poor fit].

CCCn1nc(NC(=O)c2cccs2)c2cc3cccc(C)c3nc21 was tested. Which Potency did it give?
Its Potency is inconclusive: 21.3 µM [inhibitor, single point].

— PubChem BioAssay AID588342 (National Center for Advancing Translational Sciences (NCATS), 2011)
